Values joined by “and” are separate entries in the source; they are usually repeats but may differ in a detail not shown here. Equal entries are not always repeated. Hit rate of the full screen: of about 410,000 compounds, about 6,400 (1.6%) were called active. The shares of active, inactive and inconclusive entries below differ from those in the screen. Calls follow the shape of the dose curve; as a rule, active = well fitted inhibition curve with a large enough effect; inconclusive = small, poorly fitted or top-dose-only effect; inactive = no such curve, though single readings can be large or run the other way. Where the call is inconclusive, the potency comes from a doubtful curve fit.
What follows are compounds tested against Glucagon-like peptide 1 receptor (Homo sapiens) (UniProt P43220) (assay: qHTS of GLP-1 Receptor Inverse Agonists (Inhibition Mode)). Conditions: HEK293 GLP-1R CRE-luciferase, luminescence, 24 h, GLP-1R form is constitutively active; series mostly up to 38.3 µM.
Method in brief: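 HEK293 cells stably co-expressing constitutively active GLP-1R and a cAMP-responsive luciferase reporter were seeded in DMEM with 10% Nu serum, given compounds after 12 h, and incubated 24 h at 37 deg C. Luminescence was then read.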
Also: nearly all actives have a fitted effect of over 55% in size.
Potency is read from the fitted curve at half-maximal effect; tags tell the direction and shape of the fitted curve.

Sequence of UniProt P43220 (P43220 whole entry, looked up): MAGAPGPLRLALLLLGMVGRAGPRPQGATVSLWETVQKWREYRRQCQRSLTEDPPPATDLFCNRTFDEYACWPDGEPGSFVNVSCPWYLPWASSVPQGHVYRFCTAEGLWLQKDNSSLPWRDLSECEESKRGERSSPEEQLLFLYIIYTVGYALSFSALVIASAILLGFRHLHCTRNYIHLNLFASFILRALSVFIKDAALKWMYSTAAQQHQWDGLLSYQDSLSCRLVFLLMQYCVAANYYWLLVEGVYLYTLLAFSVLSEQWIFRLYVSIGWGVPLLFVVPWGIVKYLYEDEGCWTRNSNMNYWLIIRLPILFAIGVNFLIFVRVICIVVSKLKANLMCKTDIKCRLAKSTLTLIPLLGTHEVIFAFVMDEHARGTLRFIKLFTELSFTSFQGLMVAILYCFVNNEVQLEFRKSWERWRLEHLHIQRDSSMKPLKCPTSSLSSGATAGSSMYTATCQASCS

Compound	Potency
O=C1C=C(c2ccc3ncccc3c2)C[C@@H](c2ccc(F)cc2)C1	inactive
COc1ccc(NS(=O)(=O)c2cc(OC)ccc2NC(=O)c2cc(C)oc2C)cc1	inconclusive: 1.58 µM [inhibitor, full curve, poor fit]
Oc1ccc(Br)cc1/C=N/NC(=S)NCCc1ccccc1	inconclusive: 6.31 µM [inhibitor, partial curve, poor fit]
CC(C)(C)c1ccc(CC(=O)N2CCC2(C)C(=O)NS(=O)(=O)c2ccccc2Cl)cc1 (configuration not stated)	inconclusive: 22.4 µM [inhibitor, single point]
COc1ccccc1-n1cnc2cc(NS(=O)(=O)c3ccccc3)ccc21	inconclusive: 10 µM [inhibitor, partial curve, poor fit]
COc1ccc(NC(=O)c2nc[nH]c2C(=O)N[C@@H](C)c2ccccc2)cc1	inconclusive: 11.2 µM [inhibitor, single point]
Cc1ccc(C2CC(=O)Oc3cc(C)c(Br)c(C)c32)cc1 (configuration not stated)	inconclusive: 28.2 µM [inhibitor, single point]
Cc1cc(OCc2cc(C(=O)N3CCN(CC4CC4)CC3)no2)cc(C)c1Cl	inconclusive: 7.94 µM [inhibitor, partial curve, poor fit]
O=C/C(=C\Nc1ccccn1)c1nc2cc(Cl)ccc2o1	inactive
Cc1ccc(C(=O)Nc2nc(C(N)Cc3ccc(C(F)(F)F)cc3)cs2)cc1 (configuration not stated)	inconclusive: 10 µM [inhibitor, partial curve]
COc1cc(OC)nc(Nc2nc(C(N)Cc3ccc(F)cc3)cs2)n1 (configuration not stated)	inconclusive: 11.2 µM [inhibitor, partial curve, poor fit]
O=C(CSc1nc2c(c(=O)[nH]1)CN(Cc1ccc3c(c1)OCO3)CC2)Nc1cccc(Cl)c1	inactive
C=CCn1c(SC(F)F)nc2scc(-c3ccco3)c2c1=O	inconclusive: 28.2 µM [inhibitor, single point]
CCCCn1c(=O)[nH]c(=O)c2c1nc(-c1ccsc1)n2Cc1ccccc1	inconclusive: 1.78 µM [inhibitor, partial curve, poor fit]
Cc1cc(C)c(NC(=S)NC(=O)c2ccccc2)cc1C	inconclusive: 7.94 µM [inhibitor, partial curve, poor fit]
COc1ccc(CCNC(=O)C2CCN(C(=O)c3ccc(C(C)(C)C)cc3)CC2)cc1	inconclusive: 28.2 µM [inhibitor, single point]
CCC1=Nc2cc(C(=O)NCCN3CCCC3)ccc2Sc2ccccc21	inconclusive: 12.6 µM [inhibitor, partial curve]
COc1cc(NC(=O)Cc2cccs2)cc(OC)c1	inconclusive: 12.6 µM [inhibitor, single point]
COc1ccccc1NS(=O)(=O)c1cc(N/C(=N/S(=O)(=O)c2ccccc2)c2ccc(F)cc2)ccc1Cl	inconclusive: 15.8 µM [inhibitor, partial curve, poor fit]
CCCCn1c(=O)n(Cc2cccc(F)c2)c(=O)c2c1ncn2Cc1ccco1	inconclusive: 10 µM [inhibitor, partial curve, poor fit]
CN(C(=O)C1=CC(c2ccc3c(c2)OCO3)=NS(=O)(=O)N1C)c1ccccc1	inactive

Compound	Potency
CN1CCN(C2Cc3cc(F)ccc3Sc3ccc(Cl)cc32)CC1 (configuration not stated)	inconclusive: 7.08 µM [inhibitor, partial curve, poor fit]
CN(C)CCCN(C(=O)c1ccc(Br)s1)c1nc2cc3c(cc2s1)OCO3	inconclusive: 12.6 µM [inhibitor, partial curve, poor fit]
CCC/C=C1/CCCOC(C(=O)NCc2ccccn2)(C(F)(F)F)C1 (configuration not stated)	inactive
Cc1ccccc1OCCC(=O)Nc1ccc(S(=O)(=O)N2CCCC2)cc1	inconclusive: 28.2 µM [inhibitor, single point]
Fc1c(F)c(F)c(N/N=C/c2c[nH]c3ccccc23)c(F)c1F	inconclusive: 7.08 µM [inhibitor, partial curve]
Fc1cccc(CNc2ncnc3cc(Cl)ccc23)c1F	inconclusive: 10 µM [inhibitor, partial curve, poor fit]
CC1CCCC(NC(=O)c2ccc3c(c2)OCO3)C1C (configuration not stated)	inconclusive: 10 µM [inhibitor, partial curve]
CCOC(=O)c1cccc(NC(=O)CSc2nnc(C3CCCCC3)n2C)c1	inconclusive: 28.2 µM [inhibitor, single point]
Cc1ccc(C)c(NC(=S)N/N=C2\CCc3ccccc32)c1	inconclusive: 10 µM [inhibitor, partial curve, poor fit]
CCn1cc(/C=C(\NC(=O)c2ccc(C)cc2)C(=O)NCCCN2CCOCC2)c2ccccc21	inconclusive: 7.94 µM [inhibitor, partial curve]
COc1ccc(NC(=O)C2Cc3c(-c4cccc(C(C)=O)c4)ccnc3O2)cc1 (configuration not stated)	inconclusive: 1.12 µM [inhibitor, full curve, poor fit]
Cc1cc(C(=O)NC2CCCc3c2cnn3-c2cccc(C)c2C)c(C)o1 (configuration not stated)	inconclusive: 2 µM [inhibitor, full curve, poor fit]
COc1ccc(N(Cc2ccccc2)S(=O)(=O)c2cccc(C(=O)Nc3ncccc3C)c2)cc1	inconclusive: 28.2 µM [inhibitor, single point]
COC(=O)c1cc(C(=O)c2ccc(Cl)cc2)n2c(=O)/c(=C\N(C)C)sc12	inactive
COc1cccc(C(=O)Nc2cccc(-c3ccc(N4CCOCC4)nn3)c2)c1OC	inconclusive: 28.2 µM [inhibitor, single point]
COc1ccc(S(=O)(=O)Cc2ccc(C(=O)N3CCN(c4cccc(C)c4)C(C)C3)o2)cc1 (configuration not stated)	inconclusive: 5.62 µM [inhibitor, full curve, poor fit]
CCCC[C@@H]1Cc2[nH][nH]c(=O)c2[C@H](c2cccc3ccccc23)O1	inconclusive: 10 µM [inhibitor, partial curve, poor fit]
COc1cccc(-c2cnc3c(NC=O)cc(-c4cccc(C(=O)N(C)C)c4)cn23)c1	inconclusive: 28.2 µM [inhibitor, single point]
COc1ccc(N2CC(NC(=O)c3cc4ccccc4o3)CC2=O)cc1OC (configuration not stated)	inactive
CCc1cccc(NS(=O)(=O)c2c(C)nc3sc(CC)nn3c2=O)c1	inconclusive: 31.6 µM [inhibitor, single point]
Cc1ccccc1CN(C)CCc1ccccn1	inactive

Compound	Potency
Cc1cccc(C(=O)NC(=S)Nc2ccccc2C(F)(F)F)c1	inconclusive: 14.1 µM [inhibitor, partial curve, poor fit]
CCOCCCNC(=O)C(c1ccc(C)cc1)N(Cc1cccs1)C(=O)c1ccc(NC(C)=O)cc1 (configuration not stated)	inconclusive: 8.91 µM [inhibitor, partial curve, poor fit]
Fc1ccc(C2Nc3cccc4cccc(c34)N2)cc1	inactive
Cn1cnc([N+](=O)[O-])c1Sc1nnc(-c2cccnc2)n1C	inconclusive: 12.6 µM [inhibitor, single point]
O=C1Nc2cc(C(=O)N3CCC(N4CCCCC4)CC3)ccc2S/C1=C\c1ccccc1	inconclusive: 11.2 µM [inhibitor, partial curve, poor fit]
COc1ccc(N2CCN(CCCNC(=O)Cn3c(=O)c4cccn4c4ccccc43)CC2)cc1	inactive
CC(=O)c1cccc(NC(=O)c2c(N3CCCC3=O)c3cc(F)ccc3n2C)c1	inactive
COc1ccccc1N=NNc1ccccc1OC	inconclusive: 12.6 µM [inhibitor, partial curve, poor fit]
O=C(Nc1cccc([N+](=O)[O-])c1)N(c1ccccc1)c1ccccc1	inconclusive: 28.2 µM [inhibitor, single point]
Cc1c2ccncc2cc2c1[nH]c1ccccc12	inconclusive: 10 µM [inhibitor, single point]
CC(=O)c1ccc2noc(-c3ccccc3)c2c1	inconclusive: 28.2 µM [inhibitor, single point]
CC(=O)c1ccc(N/N=C(/C(N)=O)C2=NC(C)(C)Cc3ccccc32)cc1	inconclusive: 7.94 µM [inhibitor, partial curve]
CCC1(c2ccccc2)NC(=O)N(CC(=O)Nc2ccccc2N2CCCCC2)C1=O (configuration not stated)	inconclusive: 12.6 µM [inhibitor, single point]
Cc1cc(/C=N/NC(=O)c2cccc([N+](=O)[O-])c2)c(C)n1-c1ccccc1	inconclusive: 10 µM [inhibitor, partial curve]
O=C(Nc1ccc(F)cc1F)c1c(C(F)(F)F)ccnc1Oc1cccc(C(F)(F)F)c1	inconclusive: 2 µM [inhibitor, partial curve, poor fit]
COc1ccc(OCC2CCCN(Cc3nc(CC4CC4)no3)C2)cc1 (configuration not stated)	inconclusive: 11.2 µM [inhibitor, partial curve, poor fit]
CCOC(=O)Cc1c(C)c2ccc(N(CC)CC)cc2oc1=O	inconclusive: 8.91 µM [inhibitor, partial curve, poor fit]
COC(=O)CCc1sc(Nc2ccccc2)nc1-c1ccc(OC)cc1	inconclusive: 11.2 µM [inhibitor, partial curve]
Cc1cc(C)c(NC(=O)Cn2c(=O)n(Cc3ccco3)c(=O)c3ccc(C(=O)NC4CCCC4)cc32)c(C)c1	inactive
Cc1ccc(-c2noc(CSc3nnc(Cc4ccccc4)n3-c3cccc(C)c3)n2)cc1	inconclusive: 12.6 µM [inhibitor, single point] and inconclusive: 31.6 µM [inhibitor, single point]

Source: PubChem BioAssay AID624417 (National Center for Advancing Translational Sciences (NCATS), 2012)
